Test results reported in the supplement of paper PMC8728848.
This is one part of the list.

Assays:
Assay in all cases: glycan array binding signal (z-score within array); higher = stronger binding
Details in all cases: glycan notation: IUPAC condensed, linker removed
[1] = target: Neu5Ac(a2-3)Gal(b1-4)GlcNAc(b1-2)Man
Summary of the method: (§1)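 Glycan array data came from 3228 arrays in the Consortium for Functional Glycomics database, and only arrays with an available protein sequence were kept. Glycan names were put into IUPAC-condensed notation, and columns mapping to the same glycan were averaged. The binding signal is a within-array Z-score, averaged across arrays of one protein sequence run at different concentrations or buffers and across linkers. A negative Z-score can be read as non-binding.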

[2] = target: Neu5Ac(a2-3)Gal(b1-4)GlcNAc(b1-2)Man(a1-3)[GlcNAc(b1-4)][Neu5Ac(a2-3)Gal(b1-4)GlcNAc(b1-2)Man(a1-6)]Man(b1-4)GlcNAc(b1-4)GlcNAc
Summary of the method: as §1

[3] = target: Neu5Ac(a2-3)Gal(b1-4)GlcNAc(b1-2)Man(a1-3)[Neu5Ac(a2-3)Gal(b1-4)GlcNAc(b1-2)Man(a1-6)]Man(b1-4)GlcNAc(b1-4)GlcNAc
Summary of the method: as §1

[4] = target: Neu5Ac(a2-3)Gal(b1-4)GlcNAc(b1-2)Man(a1-3)[Neu5Ac(a2-3)Gal(b1-4)GlcNAc(b1-2)Man(a1-6)]Man(b1-4)GlcNAc(b1-4)[Fuc(a1-6)]GlcNAc
Summary of the method: as §1

[5] = target: Neu5Ac(a2-3)Gal(b1-4)GlcNAc(b1-2)Man(a1-3)[Neu5Ac(a2-6)Gal(b1-4)GlcNAc(b1-2)Man(a1-6)]Man(b1-4)GlcNAc(b1-4)GlcNAc
Summary of the method: as §1

[6] = target: Neu5Ac(a2-3)Gal(b1-4)GlcNAc(b1-2)[Neu5Ac(a2-3)Gal(b1-4)GlcNAc(b1-4)]Man(a1-3)[GlcNAc(b1-4)][Neu5Ac(a2-3)Gal(b1-4)GlcNAc(b1-2)[Neu5Ac(a2-3)Gal(b1-4)GlcNAc(b1-6)]Man(a1-6)]Man(b1-4)GlcNAc(b1-4)GlcNAc
Summary of the method: as §1

[7] = target: Neu5Ac(a2-3)Gal(b1-4)GlcNAc(b1-2)[Neu5Ac(a2-3)Gal(b1-4)GlcNAc(b1-4)]Man(a1-3)[GlcNAc(b1-4)][Neu5Ac(a2-3)Gal(b1-4)GlcNAc(b1-4)Man(a1-6)]Man(b1-4)GlcNAc(b1-4)GlcNAc
Summary of the method: as §1

[8] = target: Neu5Ac(a2-3)Gal(b1-4)GlcNAc(b1-2)[Neu5Ac(a2-3)Gal(b1-4)GlcNAc(b1-6)]Man(a1-6)[Neu5Ac(a2-3)Gal(b1-4)GlcNAc(b1-2)Man(a1-3)]Man(b1-4)GlcNAc(b1-4)GlcNAc
Summary of the method: as §1

[9] = target: Neu5Ac(a2-3)Gal(b1-4)GlcNAc(b1-2)[Neu5Ac(a2-3)Gal(b1-4)GlcNAc(b1-6)]Man(a1-6)[Neu5Ac(a2-3)Gal(b1-4)GlcNAc(b1-2)Man(a1-3)][GlcNAc(b1-4)]Man(b1-4)GlcNAc(b1-4)GlcNAc
Summary of the method: as §1

[10] = target: Neu5Ac(a2-3)Gal(b1-4)GlcNAc(b1-3)Gal
Summary of the method: as §1

[11] = target: Neu5Ac(a2-3)Gal(b1-4)GlcNAc(b1-3)Gal(b1-3)GlcNAc
Summary of the method: as §1

[12] = target: Neu5Ac(a2-3)Gal(b1-4)GlcNAc(b1-3)Gal(b1-4)GlcNAc
Summary of the method: as §1

[13] = target: Neu5Ac(a2-3)Gal(b1-4)GlcNAc(b1-3)Gal(b1-4)GlcNAc(b1-2)Man(a1-3)[Neu5Ac(a2-3)Gal(b1-4)GlcNAc(b1-3)Gal(b1-4)GlcNAc(b1-2)Man(a1-6)]Man(b1-4)GlcNAc(b1-4)GlcNAc
Summary of the method: as §1

[14] = target: Neu5Ac(a2-3)Gal(b1-4)GlcNAc(b1-3)Gal(b1-4)GlcNAc(b1-3)Gal(b1-4)GlcNAc
Summary of the method: as §1

[15] = target: Neu5Ac(a2-3)Gal(b1-4)GlcNAc(b1-3)Gal(b1-4)GlcNAc(b1-3)Gal(b1-4)GlcNAc(b1-2)Man(a1-3)[Neu5Ac(a2-3)Gal(b1-4)GlcNAc(b1-3)Gal(b1-4)GlcNAc(b1-3)Gal(b1-4)GlcNAc(b1-2)Man(a1-6)]GalNAc
Summary of the method: as §1

[16] = target: Neu5Ac(a2-3)Gal(b1-4)GlcNAc(b1-3)Gal(b1-4)GlcNAc(b1-3)GalNAc
Summary of the method: as §1

[17] = target: Neu5Ac(a2-3)Gal(b1-4)GlcNAc(b1-3)Gal(b1-4)GlcNAc(b1-3)[Neu5Ac(a2-3)Gal(b1-4)GlcNAc(b1-3)Gal(b1-4)GlcNAc(b1-6)]GalNAc
Summary of the method: as §1

[18] = target: Neu5Ac(a2-3)Gal(b1-4)GlcNAc(b1-3)Gal(b1-4)GlcNAc(b1-6)[Gal(b1-3)]GalNAc
Summary of the method: as §1

[19] = target: Neu5Ac(a2-3)Gal(b1-4)GlcNAc(b1-3)Gal(b1-4)[Fuc(a1-3)]GlcNAc
Summary of the method: as §1

[20] = target: Neu5Ac(a2-3)Gal(b1-4)GlcNAc(b1-3)GalNAc
Summary of the method: as §1

[21] = target: Neu5Ac(a2-3)Gal(b1-4)GlcNAc(b1-3)[Neu5Ac(a2-3)Gal(b1-4)GlcNAc(b1-6)]GalNAc
Summary of the method: as §1

[22] = target: Neu5Ac(a2-3)Gal(b1-4)GlcNAc(b1-6)GalNAc
Summary of the method: as §1

[23] = target: Neu5Ac(a2-3)Gal(b1-4)GlcNAc(b1-6)[Gal(b1-3)]GalNAc
Summary of the method: as §1

[24] = target: Neu5Ac(a2-3)Gal(b1-4)GlcNAc(b1-6)[Neu5Ac(a2-3)Gal(b1-3)]GalNAc
Summary of the method: as §1

[25] = target: Neu5Ac(a2-3)Gal(b1-4)GlcNAc6S
Summary of the method: as §1

[26] = target: Neu5Ac(a2-3)Gal(b1-4)[Fuc(a1-3)]GlcNAc
Summary of the method: as §1

[27] = target: Neu5Ac(a2-3)Gal(b1-4)[Fuc(a1-3)]GlcNAc(b1-2)Man
Summary of the method: as §1

[28] = target: Neu5Ac(a2-3)Gal(b1-4)[Fuc(a1-3)]GlcNAc(b1-3)Gal
Summary of the method: as §1

[29] = target: Neu5Ac(a2-3)Gal(b1-4)[Fuc(a1-3)]GlcNAc(b1-3)Gal(b1-4)GlcNAc
Summary of the method: as §1

[30] = target: Neu5Ac(a2-3)Gal(b1-4)[Fuc(a1-3)]GlcNAc(b1-3)Gal(b1-4)[Fuc(a1-3)]GlcNAc(b1-3)Gal(b1-4)[Fuc(a1-3)]GlcNAc
Summary of the method: as §1

[31] = target: Neu5Ac(a2-3)Gal(b1-4)[Fuc(a1-3)]GlcNAc(b1-3)GalNAc
Summary of the method: as §1

[32] = target: Neu5Ac(a2-3)Gal(b1-4)[Fuc(a1-3)]GlcNAc(b1-6)[Gal(b1-3)]GalNAc
Summary of the method: as §1

[33] = target: Neu5Ac(a2-3)Gal(b1-4)[Fuc(a1-3)]GlcNAc(b1-6)[Neu5Ac(a2-3)Gal(b1-3)]GalNAc
Summary of the method: as §1

[34] = target: Neu5Ac(a2-3)Gal(b1-4)[Fuc(a1-3)]GlcNAc6S
Summary of the method: as §1

[35] = target: Neu5Ac(a2-3)Gal6S(b1-4)GlcNAc
Summary of the method: as §1

[36] = target: Neu5Ac(a2-3)Gal6S(b1-4)[Fuc(a1-3)]GlcNAc
Summary of the method: as §1

Neu5Ac(a2-3)GalNAc = target: Neu5Ac(a2-3)GalNAc
Summary of the method: as §1

[37] = target: Neu5Ac(a2-3)GalNAc(b1-4)GlcNAc
Summary of the method: as §1

B1: AMA (Arum maculatun) (protein)
chain: MAKLLLLLLLPAIVGLAVPRSAAAVGSNYMLSGETLNTDGRLTNGELTLIMQVDCNLVLYHGGWQSNTANNGRDCKLTLTDFGELVIKSGTGSTVWSSGSKQSMKGNYAAVVHPEGRLVIYGPSVFKINPSGAGLNGLPLRNIPLTNNMLFSGQVLYGDGTLSARNHKLVMQGDCNMVLYGGKYGWQSNTHGNGKYCFAMLTHKGELVIRDDDFKSVWSSKSSSKQGDYVFILQDDSLAIIYGPAVFSTGSKKMISMVTN
[1]
  glycan array binding signal (z-score): -0.201
[2]
  glycan array binding signal (z-score): -0.219
[3]
  glycan array binding signal (z-score): -0.169
[4]
  glycan array binding signal (z-score): 0.584
[5]
  glycan array binding signal (z-score): -0.203
[6]
  glycan array binding signal (z-score): -0.218
[7]
  glycan array binding signal (z-score): -0.22
[8]
  glycan array binding signal (z-score): -0.212
[9]
  glycan array binding signal (z-score): -0.222
[10]
  glycan array binding signal (z-score): -0.22
[11]
  glycan array binding signal (z-score): -0.21
[12]
  glycan array binding signal (z-score): -0.217
[13]
  glycan array binding signal (z-score): -0.113
[14]
  glycan array binding signal (z-score): -0.215
[15]
  glycan array binding signal (z-score): 0.009
[16]
  glycan array binding signal (z-score): -0.221
[17]
  glycan array binding signal (z-score): -0.188
[18]
  glycan array binding signal (z-score): -0.182
[19]
  glycan array binding signal (z-score): -0.224
[20]
  glycan array binding signal (z-score): -0.204
[21]
  glycan array binding signal (z-score): -0.217
[22]
  glycan array binding signal (z-score): -0.221
[23]
  glycan array binding signal (z-score): -0.21
[24]
  glycan array binding signal (z-score): -0.215
[25]
  glycan array binding signal (z-score): -0.209
[26]
  glycan array binding signal (z-score): -0.217
[27]
  glycan array binding signal (z-score): -0.208
[28]
  glycan array binding signal (z-score): -0.211
[29]
  glycan array binding signal (z-score): -0.216
[30]
  glycan array binding signal (z-score): -0.189
[31]
  glycan array binding signal (z-score): -0.201
[32]
  glycan array binding signal (z-score): -0.196
[33]
  glycan array binding signal (z-score): -0.202
[34]
  glycan array binding signal (z-score): -0.218
[35]
  glycan array binding signal (z-score): -0.211
[36]
  glycan array binding signal (z-score): -0.22
Neu5Ac(a2-3)GalNAc
  glycan array binding signal (z-score): -0.215
[37]
  glycan array binding signal (z-score): -0.217
